Experimental data as given in PubChem BioAssay AID1159614 (National Center for Advancing Translational Sciences (NCATS), 2016).
In all, about 45,000 compounds went through this assay and about 65 (0.1%) were called active. Inconclusive means that the source gave no clear call. Such entries were picked first, then a sample of the others. The call rests on the fitted dose curve; in most records, active means well fitted activation curve with a large enough effect; inconclusive means small, poorly fitted or top-dose-only effect; inactive means no such curve, though single readings can be large or run the other way. A potency beside an inconclusive call is a rough fit, not a confirmed value.

biological target: Galactocerebrosidase (Homo sapiens) (UniProt P54803); assay: A Novel Cell-Based Assay to Identify Small Molecules for B -Galactocerebrosidase; conditions: 145M-Twi-hGALC-G270D cells, HMU-beta-Gal fluorescence, 48 h; activation: at 57.5 µM (top of the series); further: nearly all actives have a fitted effect of over 65% in size; on activation: 0% is about no effect
UniProt P54803, sequence (P54803 whole entry, looked up): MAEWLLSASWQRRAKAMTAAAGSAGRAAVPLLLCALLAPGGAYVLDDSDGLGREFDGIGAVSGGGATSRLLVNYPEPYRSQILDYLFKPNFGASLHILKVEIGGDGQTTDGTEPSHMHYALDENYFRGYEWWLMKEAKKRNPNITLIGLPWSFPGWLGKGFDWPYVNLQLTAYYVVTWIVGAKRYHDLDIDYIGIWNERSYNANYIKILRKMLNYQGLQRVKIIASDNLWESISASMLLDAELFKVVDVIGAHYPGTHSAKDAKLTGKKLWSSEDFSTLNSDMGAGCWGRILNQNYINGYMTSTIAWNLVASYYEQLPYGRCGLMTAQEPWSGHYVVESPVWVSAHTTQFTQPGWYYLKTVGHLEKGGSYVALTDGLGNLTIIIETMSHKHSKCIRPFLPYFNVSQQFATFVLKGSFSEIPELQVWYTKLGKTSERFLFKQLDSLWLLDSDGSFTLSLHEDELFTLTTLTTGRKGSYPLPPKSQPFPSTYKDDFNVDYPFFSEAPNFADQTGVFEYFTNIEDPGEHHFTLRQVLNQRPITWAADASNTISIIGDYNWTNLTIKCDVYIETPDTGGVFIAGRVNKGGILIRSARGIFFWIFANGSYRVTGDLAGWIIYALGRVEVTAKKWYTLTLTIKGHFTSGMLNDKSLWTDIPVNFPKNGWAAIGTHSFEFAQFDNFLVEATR
Procedure, shortened: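 qHTS, 1536-well; 145M-Twi-hGALC-G270D cells (WT line also made) in DMEM/F12 + 10% FBS; compound incubation on live cells; HMU-β-gal 0.1 mM final, pH 5.2, NaTC; carbonate stop; fluorescence increase = enhanced residual activity.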
Potency means the concentration at half of the fitted maximal effect; tags describe the fitted curve by direction and shape.

| Structure (SMILES) | Potency | activation |
| --- | --- | --- |
| CCn1cc2nc(SCC(=O)Nc3ccc(C)cc3C)n(Cc3ccc(C)cc3)c(=O)c2n1 | inactive |  |
| COc1ccc(C2c3c(-c4c(C)cc(C)cc4O)n[nH]c3C(=O)N2Cc2ccco2)cc1 (centres undefined) | inconclusive: 39.8 µM [activator, single point] |  |
| CCc1ccc(NCc2cc3cc4c(cc3n(CC(=O)Nc3ccc(C)cc3)c2=O)OCO4)cc1 | inconclusive: 25.1 µM [activator, single point] |  |
| CCOC(=O)c1c(N)n(-c2ccc(C)c(Cl)c2)c2nc3ccccc3nc12 | inconclusive: 12.6 µM [activator, partial curve] |  |
| COCCN(CCOC)C(=O)c1cc2c(=O)n3ccccc3nc2n1C | inconclusive: 39.8 µM [activator, single point] |  |
| COc1cccc(Cn2cc(S(=O)(=O)c3ccc(C)cc3)c(=O)c3cc4c(cc32)OCO4)c1 | inconclusive: 39.8 µM [activator, single point] |  |
| CCN1CCN(C(c2ccccc2)c2c(O)cc(C)n(CCOC)c2=O)CC1 (centres undefined) | inconclusive: 2.51 µM [activator, partial curve] |  |
| Cc1ccc(C(=O)Nc2ccc(OCc3cc(=O)n4c5c(sc4n3)CCCC5)cc2)cc1 | inactive |  |
| COc1cccc(NC(=O)c2oc3ccccc3c2NC(=O)c2cc3ccccc3o2)c1 | inconclusive: 39.8 µM [activator, single point] |  |
| Cc1cccc(C(=O)N(Cc2nc(-c3ccc(Cl)cc3)no2)C(C)C)c1 | inconclusive: 39.8 µM [activator, single point] |  |
| CC(C)c1nnc(NC(=O)c2nc(S(=O)(=O)Cc3ccccc3)ncc2Cl)s1 | inactive |  |
| CCOC(=O)N1CCc2c(sc(NCc3sccc3C)c2C(=O)Nc2ccccc2OCC)C1 | inactive |  |
| COc1ccccc1CNC(=O)c1c(O)nc2cc(C)ccn2c1=O | inconclusive: 31.6 µM [activator, single point] |  |
| CC(C)(C)OC(=O)N1CCC(c2c(C(=O)N3CCOCC3)cnn2-c2cccc(F)c2)CC1 | inconclusive: 39.8 µM [activator, single point] |  |
| Cc1ccc(CNC(=O)c2ccc(-c3nc(CS(=O)(=O)c4ccc(C)cc4)c(C)o3)cc2)cc1 | inconclusive: 14.1 µM [activator, partial curve] |  |
| Cc1cccc(CNC(=O)CCn2ccc3cc(S(=O)(=O)N4CCCC4)ccc32)c1 | inconclusive: 39.8 µM [activator, single point] |  |
| COc1ccc(CNC(=O)C(C)n2ccc3cc(S(=O)(=O)N4CCCC4)ccc32)cc1OC (centres undefined) | inconclusive: 39.8 µM [activator, single point] |  |
| COc1cccc(CNC(=O)C(NS(=O)(=O)c2cccs2)C(C)C)c1 (centres undefined) | inconclusive: 31.6 µM [activator, partial curve] |  |
| CCCS(=O)(=O)c1nc(S(=O)(=O)c2ccc(C)cc2)c(N(CC)CC)s1 | active: 7.94 µM |  |
| CCOC(=O)CNC(=O)c1cc2c(=O)n3cccc(C)c3nc2s1 | inconclusive: 2.24 µM [activator, single point] |  |
| CCC(C)n1c(=N)c(C(=O)NC2CCCC2)cc2c(=O)n3ccccc3nc21 (centres undefined) | active: 10 µM |  |
| COc1ccccc1Nc1c2c(nc3ccc(NC(=O)c4ccc(OC)c(OC)c4)cc13)CCCC2 | inconclusive: 1.78 µM [activator, partial curve] |  |
| Cc1ccc(NC(=O)CC2Nc3ccccc3NC2=O)cc1C (centres undefined) | inconclusive: 20 µM [activator, partial curve] |  |
| CCOc1ccccc1NS(=O)(=O)c1ccc2c(c1)oc(=O)n2C | inconclusive: 0.158 µM [activator, full curve, poor fit] |  |
| O=C(NCc1noc2ccccc12)Nc1ccc(F)cc1F | inconclusive: 39.8 µM [activator, single point] |  |
| CC1(C)C(=O)N(CC(=O)Nc2ccc(OC(F)(F)F)cc2)c2ccccc21 | inconclusive: 35.5 µM [activator, single point] |  |
| CCS(=O)(=O)N1CCc2cc(C(=O)Nc3ccc(OC)cc3OC)ccc21 | inconclusive: 0.178 µM [activator, full curve, poor fit] |  |

| Structure (SMILES) | Potency | activation |
| --- | --- | --- |
| CCOC(=O)c1ccccc1NC(=O)N(Cc1ccco1)C1CCN(C(C)=O)CC1 | inconclusive: 39.8 µM [activator, partial curve, poor fit] |  |
| O=C(NCc1ccc2c(c1)OCO2)c1ccc2c(c1)N(Cc1ccccc1F)C(=O)c1ccccc1S2=O (centres undefined) | inconclusive: 28.2 µM [activator, single point] |  |
| COC(=O)c1ccc(CSc2nc3c([nH]c4ccccc43)c(=O)n2-c2cccc(Cl)c2)o1 | inactive |  |
| CC(C)(C)OC(=O)N1CCC(c2c(C(=O)N3CCCCC3)cnn2-c2cccc(F)c2)CC1 | active: 10 µM |  |
| CCOC(=O)c1cnc2ccc(C)cc2c1Nc1ccc(N(CC)CC)cc1 | inactive |  |
| O=C(Nc1ccc(F)cc1)C1CCN(S(=O)(=O)c2ccc3c(c2)CCCN3C(=O)C2CCC2)CC1 | inconclusive: 35.5 µM [activator, single point] |  |
| CNC(=O)c1c(NC(=O)c2cc(=O)c3cc(C)c(C)cc3o2)sc2c1CCCC2 | inconclusive: 39.8 µM [activator, single point] |  |
| CCn1c(=O)cc(OCC(=O)N2CCN(c3ccc(C(C)=O)cc3)CC2)c2ccccc21 | inactive |  |
| Cc1ccccc1CN1C(=O)c2ccccc2Sc2ccc(C(=O)O)cc21 | inactive |  |
| Cc1ccc(NC(=O)c2cc(S(=O)(=O)N3CCC(C)CC3)cn2C)cc1Cl | inconclusive: 3.98 µM [activator, single point] |  |
| COc1ccc(C2=CC(c3ccccc3Cl)n3nc(-c4ccc(C)cc4)nc3N2)cc1 (centres undefined) | inconclusive: 35.5 µM [activator, single point] |  |
| Cc1nc2cc(-c3ccc(Cl)cc3)nn2c(C)c1CCC(=O)N1CCN(c2ccccc2)CC1 | inconclusive: 0.178 µM [activator, full curve, poor fit] |  |
| CCc1c(C)sc2c1CCN(Cc1ccccc1)C2c1ccccc1 (centres undefined) | inactive |  |
| COc1ccc(N2CCN(C(=O)c3oc4ccccc4c3NC(=O)c3ccccc3OC)CC2)cc1 | inconclusive: 39.8 µM [activator, single point] |  |
| Cc1cc(C(F)F)n2nc(C(=O)Nc3ccc(F)c(Cl)c3)nc2n1 | inconclusive: 11200 µM [activator, partial curve] |  |
| COc1cc2nc(Cl)nc(N)c2cc1OC | inactive |  |
| CCCN1CCCc2cc(CN(CCCN3CCOCC3)C(=O)Nc3ccc(OCC)cc3)ccc21 | inconclusive: 20 µM [activator, single point] |  |
| Cc1ccc2oc(C(=O)Nc3ccc(S(=O)(=O)Nc4ncccn4)cc3)cc(=O)c2c1 | inconclusive: 35.5 µM [activator, single point] |  |
| CN(C(=O)Cn1c(=O)n(Cc2ccc(C(=O)NCc3ccc4c(c3)OCO4)cc2)c(=O)c2ccccc21)c1ccccc1 | inconclusive: 39.8 µM [activator, single point] |  |
| COc1ccccc1N1CCN(Cc2cc(COC(C)C)c3cccnc3c2O)CC1 | inactive |  |
| CCC(C)n1c(=N)c(C(=O)NC2CCCCC2)cc2c(=O)n3cc(C)ccc3nc21 (centres undefined) | active: 31.6 µM |  |
| Cc1cccc(C)c1OCc1cc(=O)n2ccsc2n1 | inconclusive: 0.158 µM [activator, full curve, poor fit] |  |
| CCC(CC)C(=O)Nc1ccc(-c2cn3cccnc3n2)cc1 | inconclusive: 28.2 µM [activator, single point] |  |
| Nc1nc2nc(-c3ccc(Cl)cc3)cc(C(F)(F)F)n2n1 | inconclusive: 2.82 µM [activator, partial curve] |  |
| O=C(/C=C/c1cn(CC(O)CN2CCCCCC2)c2ccccc12)c1ccccc1 (centres undefined) | inconclusive: 31.6 µM [activator, single point] |  |
| Cc1nc2c(C(=O)NCc3ccccc3)cnn2c(C)c1Cc1ccc(F)cc1 | inconclusive: 39.8 µM [activator, single point] |  |
| COc1ccc(C(=O)NCCn2cc(SCC(=O)Nc3ccc4c(c3)OCCO4)c3ccccc32)cc1 | inconclusive: 6.31 µM [activator, single point] |  |

| Structure (SMILES) | Potency | activation |
| --- | --- | --- |
| COc1ccc(NCc2cc3cc4c(cc3n(CC(=O)Nc3ccc(C)cc3C)c2=O)OCO4)cc1 | inconclusive: 35.5 µM [activator, single point] |  |
| c1ccc(-n2ncc3c(NC4CCCC4)ncnc32)cc1 | inactive |  |
| CCOC(=O)c1cnc2c(Cl)cccc2c1NCCN1CCOCC1 | inconclusive: 31.6 µM [activator, single point] |  |
| COc1ccc(NCc2cc3cc4c(cc3n(CC(=O)Nc3ccc(F)cc3F)c2=O)OCO4)cc1 | inconclusive: 35.5 µM [activator, single point] |  |
| CC(C)(C)c1ccc(C(=O)Nc2ccccc2C(=O)OCc2cc(=O)n3ccsc3n2)cc1 | inconclusive: 39.8 µM [activator, single point] |  |
| Cc1nc2c(-c3ccccc3)c(C)nn2c(C)c1CCC(=O)NCc1cccc(Cl)c1 | inactive |  |
| COc1ccc(/C=C/c2nc(C#N)c(N3CCN(c4ccccc4)CC3)o2)cc1OC | inconclusive: 2.51 µM [activator, partial curve] |  |
| CCc1ccc(CN(C(=O)c2nc(SC)ncc2Cl)C2CCS(=O)(=O)C2)cc1 (centres undefined) | inconclusive: 2.51 µM [activator, single point] |  |
| Cc1ccc(-n2ncc(C(=O)NCCCN3CCCCC3)c2C2CCN(C(=O)OC(C)(C)C)CC2)c(C)c1 | inconclusive: 39.8 µM [activator, single point] |  |
| CCN(CC)C(=O)c1sc(NC(=O)c2nc3ncccn3n2)c(C(=O)OC)c1C | inconclusive: 25.1 µM [activator, single point] |  |
| CCOC(=O)C1CCN(C(=O)Cn2nc(CC)n3c(cc4sccc43)c2=O)CC1 | inactive |  |
| COc1ccc(C(=O)Nc2ccccc2C(=O)OCc2cc(=O)n3c4c(sc3n2)CCCC4)cc1 | inconclusive: 20 µM [activator, single point] |  |
| COc1ccc(C(=O)c2c(N)c(C(=O)Nc3ccccc3Cl)c3ccccn23)cc1 | inconclusive: 35.5 µM [activator, single point] |  |
| CCOc1ccc(Nc2oc(/C=C/c3cccc(OC)c3)nc2C#N)cc1 | inconclusive: 39.8 µM [activator, single point] |  |
| Cc1ccc(CNC(=O)CS(=O)(=O)c2cccc3nsnc23)cc1 |  | inconclusive: -35.7% [activator] |
| CSc1cccc(Nc2nc3c(S(=O)(=O)c4ccccc4)nnn3c3ccc(Cl)cc23)c1 | inconclusive: 39.8 µM [activator, single point] |  |
| Cc1ccc(NC(=O)C(CC(C)C)NS(=O)(=O)c2ccc3c(c2)oc(=O)n3C)c(C)c1 (centres undefined) | inconclusive: 31.6 µM [activator, single point] |  |
| COc1ccc(C(=O)Nc2nc3c(s2)CCCC3)cc1Cl | inactive |  |
| CCCCNC(=O)CSC1=Nc2ccccc2C2=NC(CCC(=O)NCc3ccccc3OC)C(=O)N12 (centres undefined) | inconclusive: 39.8 µM [activator, single point] |  |
| COc1cccc(NC(=O)CSc2nc3ccc(NC(=O)c4ccco4)cc3s2)c1 | inactive |  |
| CCCN(CCC)C(=O)c1cc2c(=O)n3cccc(C)c3nc2s1 | active: 20 µM |  |
| CCOC(=O)c1c(N)n(-c2ccccc2CC)c2nc3ccccc3nc12 | inconclusive: 39.8 µM [activator, single point] |  |
| Cc1cccc(C)c1Nc1c(-c2ccccc2Cl)nc2cnccn12 | active: 22.4 µM |  |
| CCCCN(C)CC(O)Cn1cc(/C=C/C(=O)c2ccc(Br)cc2)c2ccccc21 (centres undefined) | inconclusive: 39.8 µM [activator, single point] |  |
| CCOC(=O)c1c(NC(=O)COc2cc(C)ccc2C(C)C)sc2c1CCCC2 | inconclusive: 7.08 µM [activator, single point] |  |
